45 compounds from paper PMC4336329 (PLoS ONE, 2015) can be followed below.

In all, about 310,000 compounds went through this assay and about 14,000 (4.5%) showed an effect of 50% or more. Effects have a minus sign here. The list shows a part of the results.
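Note: peak tail current of the secondary pulse compared with the same well before compound.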

Sequence of human ether-à-go-go-related gene (hERG) potassium channel (Q12809 whole entry, looked up): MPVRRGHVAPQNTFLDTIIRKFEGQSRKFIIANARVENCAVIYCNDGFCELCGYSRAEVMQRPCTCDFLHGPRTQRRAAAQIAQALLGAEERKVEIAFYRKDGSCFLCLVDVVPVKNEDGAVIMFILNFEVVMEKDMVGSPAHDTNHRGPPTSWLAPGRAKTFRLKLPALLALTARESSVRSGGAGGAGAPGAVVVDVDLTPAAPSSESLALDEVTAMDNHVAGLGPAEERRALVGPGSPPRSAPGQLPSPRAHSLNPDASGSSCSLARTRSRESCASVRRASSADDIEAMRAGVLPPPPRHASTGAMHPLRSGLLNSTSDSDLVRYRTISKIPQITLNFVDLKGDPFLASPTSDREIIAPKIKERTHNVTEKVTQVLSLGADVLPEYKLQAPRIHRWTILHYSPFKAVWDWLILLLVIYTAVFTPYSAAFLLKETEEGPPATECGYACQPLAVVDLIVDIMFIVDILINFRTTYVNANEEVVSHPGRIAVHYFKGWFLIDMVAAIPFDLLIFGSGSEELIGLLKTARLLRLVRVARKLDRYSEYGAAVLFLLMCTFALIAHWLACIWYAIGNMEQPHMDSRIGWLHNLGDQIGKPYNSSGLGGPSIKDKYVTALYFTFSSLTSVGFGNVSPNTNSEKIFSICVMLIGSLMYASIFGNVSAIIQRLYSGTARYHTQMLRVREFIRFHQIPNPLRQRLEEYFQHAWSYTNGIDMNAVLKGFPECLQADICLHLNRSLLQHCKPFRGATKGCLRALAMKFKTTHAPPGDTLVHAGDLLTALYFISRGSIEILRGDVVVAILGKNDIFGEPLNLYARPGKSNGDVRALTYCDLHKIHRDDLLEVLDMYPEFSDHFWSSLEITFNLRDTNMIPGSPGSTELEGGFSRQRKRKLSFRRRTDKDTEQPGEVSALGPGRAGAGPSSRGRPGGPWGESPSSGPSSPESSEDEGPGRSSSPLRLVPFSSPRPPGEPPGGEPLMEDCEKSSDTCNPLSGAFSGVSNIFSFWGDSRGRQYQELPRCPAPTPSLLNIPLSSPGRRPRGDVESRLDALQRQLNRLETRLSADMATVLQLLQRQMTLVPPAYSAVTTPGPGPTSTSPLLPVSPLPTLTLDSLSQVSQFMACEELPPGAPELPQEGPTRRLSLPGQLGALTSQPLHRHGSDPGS

The experiment has as its target human ether-à-go-go-related gene (hERG) potassium channel (human, UniProt Q12809). Kind of experiment: primary screen, population patch clamp on CHO cells stably expressing hERG.
`CCC(C)C(=O)Nc1nccs1` (stereo not drawn): the “hERG current change (%, negative = inhibition) at 10uM” value was 17%.

In the case of `O=C(CCCCC(=O)NCc1cccs1)NCc1cccs1`, the “hERG current change (%, negative = inhibition) at 10uM” value worked out at 6.59%.

As for `O=C(O)CCc1ccc(S(=O)(=O)N2CCOCC2)cc1`, the “hERG current change (%, negative = inhibition) at 10uM” value is listed as 9.65%.

Turning to `C=CCn1c(C)nnc1SCC(=O)N1CCN(S(=O)(=O)c2ccccc2)CC1`, the “hERG current change (%, negative = inhibition) at 10uM” value amounted to 13.1%.

Regarding `CCn1nc(C)c(NC(=O)Nc2cccc(Cl)c2Cl)c1C`, the “hERG current change (%, negative = inhibition) at 10uM” value is 30.4%.

Regarding `Cc1ccc(S(=O)(=O)NCCNc2ccc([N+](=O)[O-])cc2C(F)(F)F)cc1`, the “hERG current change (%, negative = inhibition) at 10uM” value is -6.92%.

For the compound `NC(=O)C1CCN(C(=O)COc2ccc3c4c(c(=O)oc3c2)CCCC4)CC1`, the “hERG current change (%, negative = inhibition) at 10uM” value came out at 9.02%.

On to `Cc1ccc(-c2nn(-c3ccccc3)cc2/C=C/C(=O)Nc2nccs2)cc1`, for which the “hERG current change (%, negative = inhibition) at 10uM” value turned out to be 10.1%.

`CCOC(=O)c1c2ccccc2[n+]([O-])n1CCO`: the “hERG current change (%, negative = inhibition) at 10uM” value turned out to be 0.676%.

For `Cc1oc2c(c1C(=O)NCCCC(=O)O)CCCC2`, the “hERG current change (%, negative = inhibition) at 10uM” value amounted to 8.67%.

On to `O=C(Nc1cc(S(=O)(=O)Nc2ccccc2Cl)ccc1O)c1sc2cc(Cl)ccc2c1Cl`, for which the “hERG current change (%, negative = inhibition) at 10uM” value came to 19.3%.

Take `Cn1nc(C(=O)Nc2ccc(Cl)cc2)cc1C(=O)Nc1ccc(Cl)cc1`: the “hERG current change (%, negative = inhibition) at 10uM” value was determined as 13.7%.

On to `Nc1ccccc1C(=O)NCCCN1CCN(c2cccc(Cl)c2)CC1`, for which the “hERG current change (%, negative = inhibition) at 10uM” value is -71.4%.

For `Oc1ccccc1-c1cc(-c2ccc3c(c2)OCCO3)n[nH]1`, the “hERG current change (%, negative = inhibition) at 10uM” value was 9.59%.

For `CC(=O)Nc1ccc(S(=O)(=O)N2CCN(S(=O)(=O)N3CCC(C)CC3)CC2)cc1`, the “hERG current change (%, negative = inhibition) at 10uM” value was found to be 16.9%.

Consider `N#Cc1sc2nc3c(c(-c4ccco4)c2c1N)CCCC3`, for which the “hERG current change (%, negative = inhibition) at 10uM” value is on record as -3.21%.

`O=C(NCCCN1CCCCCC1)C1CCCN(S(=O)(=O)c2cccc3nsnc23)C1` (stereo not drawn): the “hERG current change (%, negative = inhibition) at 10uM” value is given as -20.2%.

On to `Cc1c(NC(=O)Nc2ccccc2)cccc1[N+](=O)[O-]`, for which the “hERG current change (%, negative = inhibition) at 10uM” value was 1.71%.

Regarding `CCN(CC)CCN1C(=O)c2cccc3cc(N)cc(c23)C1=O`, the “hERG current change (%, negative = inhibition) at 10uM” value was -32.1%.

As for `CC1CCCCN1CC(=O)Nc1ccc2c(c1)OC(F)(F)O2` (stereo not drawn), the “hERG current change (%, negative = inhibition) at 10uM” value amounted to 9.08%.

For `CC(C)Oc1cccc(C(=O)C2CCCN(C(=O)c3csnn3)C2)c1` (stereo not drawn), the “hERG current change (%, negative = inhibition) at 10uM” value was -7.27%.

Regarding `COc1cccc(CNC(=O)CCCCCn2c(=S)[nH]c3ccc(N4CCOCC4)cc3c2=O)c1`, the “hERG current change (%, negative = inhibition) at 10uM” value came out at 0.827%.

For `NS(=O)(=O)c1ccc(CCNC(=O)Cn2c(=O)c3cccn3c3cccnc32)cc1`, the “hERG current change (%, negative = inhibition) at 10uM” value amounted to 22.3%.

For the compound `O=C1N(C2CCCC2)C[C@@H]2C[C@@H](c3cccn3-c3ccccn3)N3CCC[C@@]123`, the “hERG current change (%, negative = inhibition) at 10uM” value is -62.6%.

Turning to `O=c1c2ccccc2nc(SCc2cc([N+](=O)[O-])cc3c2OCOC3)n1-c1ccccc1`, the “hERG current change (%, negative = inhibition) at 10uM” value is listed as -6.37%.

`C=CCn1c(SCc2ccccc2C#N)nnc1-c1ccccc1O`: the “hERG current change (%, negative = inhibition) at 10uM” value is -23.7%.

On to `O=C(CSc1nnc(-c2ccccc2)o1)NC1CCS(=O)(=O)C1` (stereo not drawn), for which the “hERG current change (%, negative = inhibition) at 10uM” value is given as -4.33%.

`CCOc1ccc(C(=O)N/N=C/c2c(C)[nH]c(=O)[nH]c2=O)cc1`: the “hERG current change (%, negative = inhibition) at 10uM” value was -1.45%.

As to `Cc1cccc(C(=O)NCC(=O)N2CCC2)c1`, the “hERG current change (%, negative = inhibition) at 10uM” value turned out to be 2.59%.

As to `O=C(NCc1ccccc1)C12CC3CC(CC(Br)(C3)C1)C2`, the “hERG current change (%, negative = inhibition) at 10uM” value amounted to 1.21%.

On to `COc1c(C)cc(C(=O)C2CCCN(C(=O)c3cc(C4CC4)[nH]n3)C2)cc1C` (stereo not drawn), for which the “hERG current change (%, negative = inhibition) at 10uM” value is reported as -18.5%.

Turning to `CCn1c(-c2cccnc2Cl)nc2cc(Cl)c(Cl)cc21`, the “hERG current change (%, negative = inhibition) at 10uM” value is recorded as -25.5%.

On to `COc1ccccc1N1C(=O)C2C3C=CC(C3)C2C1=O` (stereo not drawn), for which the “hERG current change (%, negative = inhibition) at 10uM” value turned out to be 4.43%.

As for `NC(=O)Nc1ccc(Cl)cc1`, the “hERG current change (%, negative = inhibition) at 10uM” value is 9.27%.

For the compound `CC(C)(C)c1nnc(NC(=O)c2ccc3c(c2)OCO3)s1`, the “hERG current change (%, negative = inhibition) at 10uM” value was determined as 17.4%.

For the compound `Cc1[nH]n(-c2ccccc2)c(=O)c1N=Nc1ccccc1`, the “hERG current change (%, negative = inhibition) at 10uM” value is reported as 15.1%.

Consider `Cc1ccc(NC(=S)Nc2ccc(S(=O)(=O)Nc3ncccn3)cc2)cc1Cl`, for which the “hERG current change (%, negative = inhibition) at 10uM” value was 14.7%.

Turning to `Cc1cccc(-c2nc(CS(=O)CC(=O)NCc3cccs3)c(C)o2)c1` (stereo not drawn), the “hERG current change (%, negative = inhibition) at 10uM” value is recorded as -15.1%.

For `CC1CCCC(C(=O)O)N1C(=O)CCS` (stereo not drawn), the “hERG current change (%, negative = inhibition) at 10uM” value is -14.7%.

Regarding `CC(=O)Nc1ccc(-c2nc3ccc(NC(C)=O)cc3o2)cc1`, the “hERG current change (%, negative = inhibition) at 10uM” value is 29.5%.

For `COc1cc2c(cc1OC)CN(C(=O)C1CCC(=O)N(CCCN3CCOCC3)C1)CC2` (stereo not drawn), the “hERG current change (%, negative = inhibition) at 10uM” value stood at 13.6%.

Turning to `O=C(Nc1ccccc1)N(CCCN1CCOCC1)Cc1cccs1`, the “hERG current change (%, negative = inhibition) at 10uM” value is given as -40.1%.

On to `O=c1c(Cc2c(F)cccc2Cl)c(O)ccn1CCc1c[nH]c2ccccc12`, for which the “hERG current change (%, negative = inhibition) at 10uM” value is listed as -10.4%.

On to `Cc1cc(Cl)ccc1OC(C)c1nnc(N)s1` (stereo not drawn), for which the “hERG current change (%, negative = inhibition) at 10uM” value is -11.1%.

As for `CCOC(=O)CN=C/C(C(C)=O)=C(/C)O`, the “hERG current change (%, negative = inhibition) at 10uM” value was found to be 33.5%.
